Data published in PubChem BioAssay (NCI).
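Test compounds were applied to cells in 96-well plates for 48 hours at 5 doses. At the GI50, growth is halved. The concentration for full growth arrest is given as TGI.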

Test system: NCI-H322M lung
Assay: growth of human tumour cells (NCI), 48 h

| SMILES | GI50 | TGI |
| --- | --- | --- |
| COc1ccc(-c2nc3ccc(-c4nnc(SCc5ccccc5)o4)cc3[nH]2)cc1OC | > 100 µM | > 100 µM |
| CCN1C(=O)N(CC)C2NNC(Sc3c(C(=O)O)c4ccccc4n(CC(C)C)c3=O)=NC21 (centres undefined) | 6.19 µM | > 100 µM |
